Measured values reported in the supplement of paper PMC3334620.
Over roughly 33,000 sequences, “E-score (-0.5 to 0.5)” has its median near -0.041; the highest 2% begin near 0.37. Some of the results follow.

Molecular target: T1, Ecm22 (UniProt Q05958)
T1 sequence: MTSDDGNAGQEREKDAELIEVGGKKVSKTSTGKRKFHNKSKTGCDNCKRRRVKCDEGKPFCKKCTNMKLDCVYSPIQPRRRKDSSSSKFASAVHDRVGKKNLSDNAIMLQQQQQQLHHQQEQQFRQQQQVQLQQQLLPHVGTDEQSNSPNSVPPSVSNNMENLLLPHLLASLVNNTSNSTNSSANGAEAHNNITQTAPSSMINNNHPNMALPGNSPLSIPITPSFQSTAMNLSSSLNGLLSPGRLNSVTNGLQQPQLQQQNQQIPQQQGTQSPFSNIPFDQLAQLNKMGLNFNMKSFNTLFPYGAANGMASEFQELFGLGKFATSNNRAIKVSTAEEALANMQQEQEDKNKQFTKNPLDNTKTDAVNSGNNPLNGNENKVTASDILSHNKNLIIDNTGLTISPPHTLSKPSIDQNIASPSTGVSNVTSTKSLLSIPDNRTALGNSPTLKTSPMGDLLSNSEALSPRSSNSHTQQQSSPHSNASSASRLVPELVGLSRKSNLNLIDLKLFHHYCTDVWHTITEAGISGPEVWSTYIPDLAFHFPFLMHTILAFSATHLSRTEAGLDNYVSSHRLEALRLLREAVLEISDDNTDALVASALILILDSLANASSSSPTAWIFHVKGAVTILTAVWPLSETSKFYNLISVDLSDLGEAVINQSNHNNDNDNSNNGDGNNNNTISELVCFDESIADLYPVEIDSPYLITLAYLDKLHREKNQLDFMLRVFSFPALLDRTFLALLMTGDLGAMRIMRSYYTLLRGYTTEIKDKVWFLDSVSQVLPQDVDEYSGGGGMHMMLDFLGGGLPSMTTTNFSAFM
Test: PBM E-score (8-mer binding enrichment) (E-score (-0.5 to 0.5)); higher = stronger / more preferred TF binding; most listed sequences are background and not binding sites
Settings: protein concentration: 200 nM; construct: GST-full length
Summary of the method: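 E-scores (a modified Wilcoxon-Mann-Whitney statistic) were assigned by the Universal PBM Analysis Suite to every ungapped eight-base word pooled with its reverse complement. The input came from universal all-10-mer Agilent arrays made double-stranded by primer extension and probed with GST-tagged yeast transcription factors at about 100-200 nM. Fluorescent anti-GST detected bound protein, and masliner normalised the scans.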

Sequence	PBM E-score
ATCGGTTA	0.362
GCCACCGC	-0.199
GAAGAAAA	-0.126
CTTTATTC	-0.087
CCCTGGCC	-0.261
CGAGTCTC	0.111
CGACCTAA	0.293
GTTTATAA	0.232
CATAGTCA	-0.094
CAAGATTG	-0.135
CCTGCAGG	-0.352
ACCCGTGC	-0.055
ATAACTAC	0.0754
AGAAGAGG	-0.145
CACCCCTC	-0.0795
AAACTTCA	0.0121
ACATAAGT	-0.145
GATTAAGC	0.0332
CTCCCCGA	-0.0939
CAAATCTG	-0.221
AATTTAGC	-0.0245
CACTACAA	0.0495
ACGCGACG	0.291
ACGGCGAT	0.377
AAAGTTCT	-0.105

Sequence	PBM E-score
AAAGACCG	-0.101
GAAACTGA	-0.0628
CCGACCTA	0.0401
ATCGAGAT	0.0251
GCACTCCC	-0.206
CGCCTTGA	-0.145
TCGGTCAA	0.257
CGTCGCTA	0.252
CGCAACTA	0.0567
CCGTTCCA	0.373
TCTGACAA	-0.15
AGCTATTA	-0.21
GAGCCTAA	0.0176
ATAATTCA	0.0687
GAAGGCGC	-0.0899
TGCCGTAA	0.227
CAAGAACC	-0.0263
CGTTAACG	0.26
ACAGTTAG	-0.184
AGAGTGTG	0.115
ACACATAG	-0.232
GACTCGTA	0.455
CAATCCAG	-0.417
CTTTACGC	0.211
CACTATGG	-0.0412

Sequence	PBM E-score
AGCGTCAT	-0.0415
CAAAGCGG	-0.0992
GCTCCACA	-0.0705
GAAAAAGC	-0.00535
ACGAAAAG	0.339
CAACTGAC	-0.154
ATCACAAC	-0.0429
AGCGCCGA	-0.0179
AGAGCCTA	-0.0789
TCTGCAAA	-0.0603
GTACATAC	0.17
AACACGTT	0.0454
GCAATAGA	0.165
CTCCTTTA	-0.135
AAGAAATA	0.00355
ATGCTATA	-0.00026
AAAGTAAA	-0.0722
AGAAAGTG	-0.236
ATGAGTAA	-0.0801
ATTGCATC	0.0349
CTTTTCCC	0.0866
GGGGCACC	-0.0334
ATACAATG	-0.195
AATGGGAA	-0.27
AACATGGC	-0.118

Sequence	PBM E-score
CGGTGAAA	0.262
AAGAAGAT	-0.0912
ATCCCCGA	-0.101
CAATAAGA	-0.137
ACGGCTCT	0.0583
ATACTTCA	-0.115
ATCTTAAA	0.0536
GAGCCCCC	-0.138
CCTTGCTA	-0.083
CAAGCGGA	-0.136
AAAGGCAT	-0.132
CTGCGATC	0.0253
AGCTGAGC	-0.1
GGAGGCGA	-0.153
AATCCTTG	-0.203
CCTCATTA	-0.131
TCGCCAAA	0.157
ATTTGCTG	0.0223
AGTTCTCG	0.244
AATATCAC	-0.0232
CAGCGACC	-0.189
AAGTCAAC	-0.0403
CAGGTGGA	-0.313
TGTAACAA	0.00855
AACGCCCC	0.0855

Sequence	PBM E-score
ATCAGAAA	-0.206
ATTCTCAG	-0.308
AATAGGGC	-0.141
ACTTTCAT	-0.057
CTAGTGAG	-0.237
CTTAACTA	-0.113
ATCTTAAG	-0.0865
CGTCTGAC	0.104
TACACGTA	0.131
AATGAGGT	-0.058
CCCTACAC	-0.0142
CGTCATCA	0.0164
ATAATAGC	0.0604
CAACGCAC	0.0008
CTAGTCTC	-0.128
GGAGGATA	-0.136
ATCTCGAA	0.069
ATTTCTGG	-0.211
CTGTGAGC	-0.0522
ATTTAAGG	-0.0374
TGAGGGAA	-0.0613
AATCATGG	-0.122
AGCAGGCC	-0.174
AATAGTCA	-0.014
AACGTCTC	0.0335

Sequence	PBM E-score
CTACGCTA	-0.199
GCTCCAAA	-0.167
ATCTCCGG	0.033
ATTAATAA	0.0778
AACGAGCA	0.46
ATCCTATG	-0.143
CCGTAGTC	0.0351
GAGCTGGC	-0.0227
GAATGAGC	-0.0444
GAGGACGC	0.00547
AAACGACC	0.45
AAACCTCA	0.033
ATTGTGGC	-0.131
GCATGAGC	-0.0629
CGTCCAGC	-0.205
ACACAGGA	-0.0255
AAAACAGC	-0.102
CACCCCCC	-0.33
CCCCGGTA	-0.0799
ACGGAGTC	0.0712
AGTATCCG	0.0992
ATATCCGA	0.3
AACCCTAG	-0.0686
TGTCGCAA	0.216
GTCCGATA	0.0757

Sequence	PBM E-score
CACGGACC	0.135
AAATGACA	-0.171
ATTCCTGA	-0.209
CGCGGAGA	0.0766
CTGCTACA	-0.137
CCGTGTCA	-0.118
TCGACTAA	-0.0908
CCCTGGGC	-0.299
AGGTACTA	-0.0688
CAAACTTC	-0.125
CCCCCCCC	-0.402
CCGGGGCC	-0.129
TCGAGACA	0.105
AATTAATG	0.0262
CATGACTA	-0.0693
ACCTATCC	-0.0402
CACTTAGC	-0.177
ACTTGTGG	-0.0916
AAATTTTC	0.0924
CCTGTTCA	-0.0287
AAGGATCG	0.22
CAAGGAGC	-0.0859
CCCACAAG	0.0473
AGCGTACC	0.251
GTATGCGA	0.321

Sequence	PBM E-score
TCGCCTCA	-0.0214
CCCGAATC	0.0646
GATGTTAA	-0.0215
AATCAATC	0.0671
CTCCGTTA	0.0433
ACAGATAA	-0.0749
AAGCGCAG	-0.0478
ACGTGTAA	0.02
CAAGGACC	-0.0754
AGGCGGGG	-0.0751
CATTACCA	-0.173
ATCCTCCC	-0.0763
TCCCAGAA	-0.0801
TCTCTCCA	-0.0875
ACACTGTA	0.0998
CCTTACTA	0.0754
ATATTCGA	0.137
ATTATTTA	0.0468
GGCGCGAC	0.114
AGAAAGTA	-0.0193
AAATGCCA	-0.256
CCGTGCAC	-0.0946
AAGGCACA	-0.202
ACGTCAAG	-0.081
GGTCATAA	0.0137

Sequence	PBM E-score
CCTCCCCC	-0.303
GTGCTCAA	-0.0853
CATCGAGG	0.0649
AGTGCCCC	-0.297
ACCCACTA	-0.158
CGCCATTC	-0.0764
ATCATGAT	0.14
ACGTGAAA	0.00053
TAGGGTAA	-0.0377
AGGTCCTA	-0.0772
GCTTGGTA	0.123
CATGGTAC	0.0684
GGATGGGA	0.0713
AAAAGCCA	-0.0154
TAGTACAA	0.0161
CCCGCAGG	-0.0318
CCCGTGAG	-0.208
CTGATCAC	-0.269
AAGAACGA	0.453
CACTTCTA	-0.213
AAAGGCTG	-0.243
CATCGGGG	-0.166
ACGTCAGG	-0.167
TCGGTACA	0.159
CGCACTTA	-0.0668

Sequence	PBM E-score
ATGTAGTC	-0.0995
GGTAACCA	-0.223
CGGAGTAC	0.167
CACTACAG	-0.0957
TGATCCCA	-0.339
GCTTTGAA	0.0443
ATTGTGGA	-0.0767
CGTGGAAC	0.171
ACGTGAAC	0.116
CAGATGCC	-0.0845
CCATTCAG	-0.372
CGCGGGCC	-0.0695
GACGGGGA	0.0522
CCTCAAAG	-0.333
AGCAGTGA	-0.0929
AGGGTCGA	-0.0633
CCGTTTAG	0.433
AACTGTCT	-0.127
ATGGTGGA	-0.233
GCTGGTCA	-0.107
ATATGCAG	-0.189
AAGCGTTA	0.00424
ATTTAGAG	-0.071
GCCCTTCC	-0.238
CAATTTGC	-0.138

Sequence	PBM E-score
ACCTCAGT	0.0481
AGTGAGTC	-0.183
CCCCCAAC	-0.333
GTAGCAGA	0.0392
ACCCCGCG	0.0229
TAGAACCA	0.00176
AAGGAAGC	-0.234
GACGCCAC	-0.0474
ATCGGACC	0.132
GTGCTGGA	-0.0724
GAGGTTTA	0.00322
GTAATAAC	0.0435
AGAGGTGC	-0.0602
CAGGCACA	-0.345
CTAGATGA	-0.0373
GCGACCGC	0.123
ACGCTAAC	-0.0173
ATGCCGGC	-0.133
GCAAGATA	0.0593
CCTGTGGA	-0.334
CTGCCGAC	0.0606
AAATCAGA	0.0265
ACATAAAA	0.0758
CCCCGGAA	-0.249
CAACCTGG	-0.0624

Sequence	PBM E-score
CCTACCCC	-0.0988
ATCTTTCG	0.097
AACAGTGG	-0.169
GATAGTAC	0.0708
ACGTTTGC	0.0656
ACAGACAT	0.0546
GTCTTTCA	0.0144
ACCAATCA	0.0404
AGGGCCCG	-0.114
TACCATGA	-0.159
CTGATAAG	-0.216
ACACTTTA	0.0464
CAATTAGC	-0.15
CCGTCATA	0.0387
ACGTCGAT	0.0718
ACTAACTC	-0.236
AGACGGGA	-0.0848
ATTCTCCA	-0.054
ACTTGTCT	-0.0912
CCACGCCC	-0.205
CCCCCACA	-0.362
AAGCGGAC	-0.0617
GACCGCGC	0.0551
ATCGGGAG	-0.0469
ATTCGCTG	0.114

Sequence	PBM E-score
AACCGCTT	-0.0907
CGAGAAAC	0.219
CTTCACAA	-0.157
ATCGACAC	0.0894
ACGGTGAC	-0.0293
CCACGCTC	-0.119
ACAATGAG	-0.111
GCGAAGTA	0.112
ACCGGGGC	-0.124
CACGGTGG	-0.0182
AGACTAAC	-0.0838
ACCGTAAC	0.231
AACCAGAT	0.0941
CGGGTCTC	0.00746
CGGACCAA	-0.0431
GGGAGTTA	-0.144
CGCGAGCA	0.121
ATAGAATG	-0.0982
CCCTAAAC	0.0362
TGCTCGAA	-0.0944
GTTTCTGA	0.0514
GGGGCAAC	-0.0958
AGTTTTCG	0.0929
ATACTTAG	-0.0392
GGCCTGCA	-0.0917

Sequence	PBM E-score
CCCTCATA	-0.201
CTAAACGC	0.284
ATTTCTGA	-0.286
TACCACCA	-0.196
GCATGGGC	-0.168
AAGCCCCC	-0.226
TATAGATA	0.141
CTGGGTCA	-0.172
ACCTATAC	0.28
ATTCAACG	0.211
ATTGTAAA	0.17
ATGGACTC	-0.0123
AGGGGCTA	-0.0887
CGTCACTC	0.0237
TCACGCAA	-0.0645
CGTGCCAA	-0.0558
AGTGGTGG	-0.151
GGCGGCAC	0.0476
CCCTGTTA	-0.117
